{
  "source": "paper PMC4336329",
  "about": "(PLoS ONE, 2015)",
  "note": "In all, about 310,000 compounds went through this assay and about 14,000 (4.5%) showed an effect of 50% or more. Effects have a minus sign here. The list shows a part of the results.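 Further: peak tail current of the secondary pulse compared with the same well before compound.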",
  "data": [
    {"molecular_target": "human ether-à-go-go-related gene (hERG) potassium channel (human, UniProt Q12809)", "sequence (Q12809 whole entry, looked up)": "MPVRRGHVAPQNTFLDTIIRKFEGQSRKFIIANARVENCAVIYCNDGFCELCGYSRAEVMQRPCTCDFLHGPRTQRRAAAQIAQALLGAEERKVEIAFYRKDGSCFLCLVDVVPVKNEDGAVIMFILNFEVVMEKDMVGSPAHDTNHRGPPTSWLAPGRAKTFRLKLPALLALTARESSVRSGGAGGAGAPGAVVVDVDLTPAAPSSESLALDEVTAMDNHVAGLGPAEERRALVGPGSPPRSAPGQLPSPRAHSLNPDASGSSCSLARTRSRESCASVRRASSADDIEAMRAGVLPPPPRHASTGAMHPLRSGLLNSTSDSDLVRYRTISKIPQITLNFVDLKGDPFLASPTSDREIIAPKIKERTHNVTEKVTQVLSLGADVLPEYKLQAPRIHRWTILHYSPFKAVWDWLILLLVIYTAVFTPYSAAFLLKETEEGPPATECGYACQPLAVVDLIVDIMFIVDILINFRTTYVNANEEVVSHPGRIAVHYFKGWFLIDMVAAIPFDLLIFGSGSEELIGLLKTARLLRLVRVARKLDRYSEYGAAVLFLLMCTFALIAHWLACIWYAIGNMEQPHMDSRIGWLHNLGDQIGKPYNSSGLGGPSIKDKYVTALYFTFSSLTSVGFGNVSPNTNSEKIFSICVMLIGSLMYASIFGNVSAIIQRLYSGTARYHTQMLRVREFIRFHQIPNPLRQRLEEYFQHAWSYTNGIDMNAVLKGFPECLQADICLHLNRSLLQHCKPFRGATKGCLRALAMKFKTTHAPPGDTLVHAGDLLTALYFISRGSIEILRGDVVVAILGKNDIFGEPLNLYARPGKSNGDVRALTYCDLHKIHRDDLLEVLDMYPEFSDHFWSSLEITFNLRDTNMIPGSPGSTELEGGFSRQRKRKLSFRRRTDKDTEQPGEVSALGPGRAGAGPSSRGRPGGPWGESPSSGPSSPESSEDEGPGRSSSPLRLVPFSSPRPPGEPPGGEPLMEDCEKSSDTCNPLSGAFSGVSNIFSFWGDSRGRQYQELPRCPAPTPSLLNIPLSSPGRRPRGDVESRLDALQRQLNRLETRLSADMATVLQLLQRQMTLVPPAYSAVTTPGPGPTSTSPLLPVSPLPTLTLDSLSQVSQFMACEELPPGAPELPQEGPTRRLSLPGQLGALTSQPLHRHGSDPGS", "experiment": "primary screen, population patch clamp on CHO cells stably expressing hERG", "units": {"hERG current change (%, negative = inhibition) at 10uM": "%"}, "values": [
      {"smiles": "Cc1ccc(C(=O)O/N=C2\\CCS(=O)(=O)c3sccc32)cc1", "hERG current change (%, negative = inhibition) at 10uM": 16.6},
      {"smiles": "COc1ccc(CNC(=O)C2(CC3CC(c4ccccc4)=NO3)CCN(C(=O)C3(C)CC3)CC2)cc1", "note": "(centres unmarked)", "hERG current change (%, negative = inhibition) at 10uM": -67},
      {"smiles": "Cc1nn(CC(=O)NCCc2ccccc2)c(=O)c2cccn12", "hERG current change (%, negative = inhibition) at 10uM": 10.7},
      {"smiles": "C=CCNC(=S)N/N=C/c1ccc(C(F)(F)F)cc1", "hERG current change (%, negative = inhibition) at 10uM": 9.58},
      {"smiles": "O=C(NCCCN1CCCC1=O)c1cccc(Oc2ccccc2)c1", "hERG current change (%, negative = inhibition) at 10uM": 10.5},
      {"smiles": "O=C(NCc1nnnn1-c1ccc(F)c(F)c1)C(=O)c1c[nH]c2ccccc12", "hERG current change (%, negative = inhibition) at 10uM": 6.24},
      {"smiles": "CCCc1cc(=O)oc2c(C)c(OCC(=O)NCCCN3CCOCC3)ccc12", "hERG current change (%, negative = inhibition) at 10uM": -20.2},
      {"smiles": "O=C(Nc1cccc(-c2cn3c(n2)SCC3)c1)c1ccc2c(c1)OCO2", "hERG current change (%, negative = inhibition) at 10uM": -3.9},
      {"smiles": "Cc1ccc(NC(=O)Cc2cccs2)cc1Cl", "hERG current change (%, negative = inhibition) at 10uM": 9.61},
      {"smiles": "N=C1C(c2ccccc2)=C(O)CN1c1ccccc1N1CCOCC1", "hERG current change (%, negative = inhibition) at 10uM": -14.6},
      {"smiles": "COc1ccc(C(=O)C2CCCN(C(=O)c3cccc(Cn4cccn4)c3)C2)cc1F", "note": "(centres unmarked)", "hERG current change (%, negative = inhibition) at 10uM": -14.5},
      {"smiles": "Cc1ccc(C(NC(=O)/C=C\\c2ccc3c(c2)OCO3)C(=O)Nc2ccc3c(c2)OCO3)cc1", "note": "(centres unmarked)", "hERG current change (%, negative = inhibition) at 10uM": -0.228},
      {"smiles": "O=C(C1CCN(S(=O)(=O)c2cccc3nonc23)CC1)N1CCCCC1", "hERG current change (%, negative = inhibition) at 10uM": 4.65},
      {"smiles": "Cc1nn(C)cc1-c1n[nH]c(=S)n1-c1ccc(Cl)cc1", "hERG current change (%, negative = inhibition) at 10uM": 29.1},
      {"smiles": "CN(C)S(=O)(=O)c1cccc(NC(=O)COC(=O)/C=C/c2cccs2)c1", "hERG current change (%, negative = inhibition) at 10uM": -25},
      {"smiles": "CC1(C)CC(=O)C([N+](=O)[O-])=C(NCCCC(=O)O)C1.O", "hERG current change (%, negative = inhibition) at 10uM": 15},
      {"smiles": "COc1ccccc1NC(=O)C1CCCN(c2cnccn2)C1", "note": "(centres unmarked)", "hERG current change (%, negative = inhibition) at 10uM": 7.23},
      {"smiles": "CCOC(=O)C1=C(CSc2nc3c(cc2C#N)CCC3)OC(N)=C(C#N)C1c1ccccc1.CN(C)C=O", "note": "(centres unmarked)", "hERG current change (%, negative = inhibition) at 10uM": 11.2},
      {"smiles": "Cc1c(C(=O)O)cnc2cc(-c3ccc(Cl)cc3)nn12", "hERG current change (%, negative = inhibition) at 10uM": 20.4},
      {"smiles": "CCOc1ccccc1C(=O)NC1CC2CCCC(C1)N2Cc1ccccc1", "note": "(centres unmarked)", "hERG current change (%, negative = inhibition) at 10uM": -54.5},
      {"smiles": "CCOc1ccc(CN(C)C(C)C(=O)Nc2ccc([N+](=O)[O-])cc2Cl)cc1OC", "note": "(centres unmarked)", "hERG current change (%, negative = inhibition) at 10uM": -42.3},
      {"smiles": "Cc1cccc(C)c1NC(=O)Cn1nc(-c2ccccc2)nc1-c1ccccc1", "hERG current change (%, negative = inhibition) at 10uM": 12.6},
      {"smiles": "CCOc1cc(/C=C(\\C#N)c2[nH]nc(N)c2C#N)ccc1O", "hERG current change (%, negative = inhibition) at 10uM": -8.98},
      {"smiles": "CCOc1ccccc1N(CC(=O)Nc1cccnc1)S(=O)(=O)c1ccc(C)cc1", "hERG current change (%, negative = inhibition) at 10uM": -13.4},
      {"smiles": "COc1cccc2sc(N3CCN(c4nc5ccccc5s4)CC3)nc12", "hERG current change (%, negative = inhibition) at 10uM": 10.9},
      {"smiles": "COc1ccc2cc(N=Cc3nc(-c4ccc(C)cc4)oc3O)cnc2c1", "hERG current change (%, negative = inhibition) at 10uM": 1.84},
      {"smiles": "O=C(O)CCc1nc(-c2ccc(Cl)cc2)no1", "hERG current change (%, negative = inhibition) at 10uM": 12.1},
      {"smiles": "COc1ccc(-c2nn(-c3ccccc3)cc2/C=C\\C(=O)N2CCOCC2)cc1[N+](=O)[O-]", "hERG current change (%, negative = inhibition) at 10uM": -34},
      {"smiles": "Cc1cc(Cl)c(S(=O)(=O)N2CCN(c3ccccn3)CC2)cc1OCC(=O)NC1CCCCC1", "hERG current change (%, negative = inhibition) at 10uM": -56.9},
      {"smiles": "O=C(NC1=NCCS1)c1ccccc1", "hERG current change (%, negative = inhibition) at 10uM": 16.4},
      {"smiles": "COC(=O)c1ccccc1NC(=O)C1CCCCC1C(=O)O", "note": "(centres unmarked)", "hERG current change (%, negative = inhibition) at 10uM": -0.478},
      {"smiles": "CCCN1CCN(c2ncnc3c2nnn3Cc2ccccc2)CC1", "hERG current change (%, negative = inhibition) at 10uM": -16.2},
      {"smiles": "O=C(C1=C(O)C(=O)N(CCCn2ccnc2)C1c1ccc(F)cc1)c1ccco1", "note": "(centres unmarked)", "hERG current change (%, negative = inhibition) at 10uM": 15.8},
      {"smiles": "CCC/C(O)=C1\\C(=O)CCCC1=NCCCCCC(=O)O", "hERG current change (%, negative = inhibition) at 10uM": 11.6},
      {"smiles": "CNS(=O)(=O)c1cccc(C(=O)NCC2(N3CCCCC3)CCCCC2)c1", "hERG current change (%, negative = inhibition) at 10uM": -18.3},
      {"smiles": "CCCCN1C(=O)C(=O)N(CC(=O)Nc2ccc(C(N)=O)cc2)C1=O", "hERG current change (%, negative = inhibition) at 10uM": -11.6},
      {"smiles": "CC(C)(C)C(=O)N1CCN(c2ccc([N+](=O)[O-])c(NCC3CCCO3)c2)CC1", "note": "(centres unmarked)", "hERG current change (%, negative = inhibition) at 10uM": -20.8},
      {"smiles": "COc1ccc(NCCC#N)cc1", "hERG current change (%, negative = inhibition) at 10uM": 5.05},
      {"smiles": "CCc1ccc(CN2CCC(CO)(CC3CCCCO3)CC2)o1", "note": "(centres unmarked)", "hERG current change (%, negative = inhibition) at 10uM": -5.06},
      {"smiles": "COc1ccccc1Nc1c2c(nc3ccc(N)cc13)CCCC2", "hERG current change (%, negative = inhibition) at 10uM": -72.4},
      {"smiles": "Cc1sc2nc(SCC(=O)N(CCO)CCO)n(C3CCCCC3)c(=O)c2c1C", "hERG current change (%, negative = inhibition) at 10uM": 6.76},
      {"smiles": "CCN(CC)CC(O)Cn1c(-c2ccccc2Cl)nc2ccccc21", "note": "(centres unmarked)", "hERG current change (%, negative = inhibition) at 10uM": -25.2},
      {"smiles": "Cc1cccc(C)c1C(=O)N[C@@H](Cc1ccccc1)C(=O)O", "hERG current change (%, negative = inhibition) at 10uM": 8.83},
      {"smiles": "NC(CC(=O)NC(c1ccccc1)(c1ccccc1)c1ccccc1)C(=O)O", "note": "(centres unmarked)", "hERG current change (%, negative = inhibition) at 10uM": 16.2},
      {"smiles": "O=C(O)c1cccc(-n2cccc2/C=C2\\NC(=O)N(Cc3ccc(F)cc3)C2=O)c1", "hERG current change (%, negative = inhibition) at 10uM": 9.83},
      {"smiles": "Cc1nn(-c2ccccc2)c(Cl)c1/C=N/Nc1nc2ccccc2[nH]1", "hERG current change (%, negative = inhibition) at 10uM": 10.3},
      {"smiles": "Cc1ccc(CN2CC(C(=O)Nc3ccc(S(=O)(=O)N4CCCCC4)cc3)CC2=O)cc1", "note": "(centres unmarked)", "hERG current change (%, negative = inhibition) at 10uM": -8.99},
      {"smiles": "CC(c1ccccc1)n1c(CO)nc2ccccc21", "note": "(centres unmarked)", "hERG current change (%, negative = inhibition) at 10uM": 21.6},
      {"smiles": "Cc1cccc(-n2nc([N+](=O)[O-])c(=NCc3cccnc3)n2O)c1", "hERG current change (%, negative = inhibition) at 10uM": -7.73},
      {"smiles": "COc1ccccc1NC(=O)c1ccc(NC(=O)COC(=O)C2(C)CC2(Cl)Cl)cc1", "note": "(centres unmarked)", "hERG current change (%, negative = inhibition) at 10uM": -1.34},
      {"smiles": "COC(C[C@@H]1O[C@H]1[C@H](O)[C@@H](C)OCc1ccccc1)OC", "hERG current change (%, negative = inhibition) at 10uM": -4.39},
      {"smiles": "COc1cccc(CC(=O)N[C@@H](CCSC)c2nc3ccccc3[nH]2)c1", "hERG current change (%, negative = inhibition) at 10uM": 2.98},
      {"smiles": "CCn1c2ccccc2c2c3ncc4cccn4c3ccc21", "hERG current change (%, negative = inhibition) at 10uM": 18.9},
      {"smiles": "COc1nc(NCCO)nc(Nc2ccccc2F)n1", "hERG current change (%, negative = inhibition) at 10uM": 9.77},
      {"smiles": "C[C@H](NC(=O)OC(C)(C)C)C(=O)N/N=C/C1=Cc2ccccc2OC1", "hERG current change (%, negative = inhibition) at 10uM": 8.2},
      {"smiles": "COc1cccc(CN(C)C(=O)c2ccccc2Sc2ccccc2C#N)c1", "hERG current change (%, negative = inhibition) at 10uM": -13.4}
    ]}
  ]
}
